# In the supplement of paper PMC8728848:
# This is one part of the list.
# B1: PX9937D-bvu-500-26-500 (Bacteroides vulgatus) (protein)
# chain: DPVSDITDLNYWKTPEQFDSFVFGLHSRFRSHSWNMFLLGEARSDVFGGIPFGGEATQGMERFPYNTLNAENPGISGFGDLYQNINQMNLFISRTLHTDVLTESARNYYLGQVYGLRAYYMYQLYRSWGDVVFTEEPSLGFEVGKLAKAATPAAEIFEQVKKDIESSLSYFGSDYTIKEKKSLWSKAATLMLKADVYLWSAHRDGGEGDARTAKNALVDIQNNISRSNLDLMDTYQGVFAYDNKGNKEIIFTIHNELFEYNLWNGNNDLFPQADYLGKFYNADGTLINTSVENNFGIMRLMVKLENFKKFLPGDTRRDVTLKDVYNKVENGKLELVGVYPHKYWGVMNGSTRVRCDDYPIYRYSDLLLMLAEAKVLLGEDPATEINRVRRRAFGDAYDASTVGFPNQEVDKRPADAVLQERLFEFMLEGKRWYDLRRFGDSYVLDYTPAEPARLLWPINQGALTNNPLLKQTVGY
# Assays:
# Assay in all cases: glycan array binding signal (z-score within array); higher = stronger binding
# Details in all cases: glycan notation: IUPAC condensed, linker removed
# [1] = molecular target: Fuc(a1-2)[Gal(a1-3)]Gal(b1-4)GlcNAc(b1-2)Man(a1-3)[Fuc(a1-2)[Gal(a1-3)]Gal(b1-4)GlcNAc(b1-2)Man(a1-6)]Man(b1-4)GlcNAc(b1-4)[Fuc(a1-6)]GlcNAc
# Summary of the method: (§1)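 Glycan array binding is given as a within-array Z-score, which can be read as non-binding when negative. The arrays, 3228 of them, came from the Consortium for Functional Glycomics database and were retained only where the protein sequence was available. Z-scores were averaged across arrays of the same protein sequence at different concentrations or buffers and across linkers.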
# [2] = molecular target: Fuc(a1-2)[Gal(a1-3)]Gal(b1-4)GlcNAc(b1-3)GalNAc
# Summary of the method: as §1
# [3] = molecular target: Fuc(a1-2)[Gal(a1-3)]Gal(b1-4)GlcNAc(b1-3)[Fuc(a1-2)[Gal(a1-3)]Gal(b1-4)GlcNAc(b1-6)]GalNAc
# Summary of the method: as §1
# [4] = molecular target: Fuc(a1-2)[Gal(a1-3)]Gal(b1-4)GlcNAc(b1-6)GalNAc
# Summary of the method: as §1
# [5] = molecular target: Fuc(a1-2)[Gal(a1-3)]Gal(b1-4)[Fuc(a1-3)]Glc
# Summary of the method: as §1
# [6] = molecular target: Fuc(a1-2)[Gal(a1-3)]Gal(b1-4)[Fuc(a1-3)]GlcNAc
# Summary of the method: as §1
# [7] = molecular target: Fuc(a1-2)[Gal(a1-3)]Gal(b1-4)[Fuc(a1-3)]GlcNAc(b1-3)GalNAc
# Summary of the method: as §1
# [8] = molecular target: Fuc(a1-2)[Gal(a1-4)]Gal(b1-4)GlcNAc
# Summary of the method: as §1
# [9] = molecular target: Fuc(a1-2)[GalNAc(a1-3)]Gal
# Summary of the method: as §1
# [10] = molecular target: Fuc(a1-2)[GalNAc(a1-3)]Gal(b1-3)GalNAc(a1-3)[Fuc(a1-2)]Gal(b1-4)GlcNAc
# Summary of the method: as §1
# [11] = molecular target: Fuc(a1-2)[GalNAc(a1-3)]Gal(b1-3)GalNAc(b1-3)Gal(a1-4)Gal(b1-4)Glc
# Summary of the method: as §1
# [12] = molecular target: Fuc(a1-2)[GalNAc(a1-3)]Gal(b1-3)GlcNAc
# Summary of the method: as §1
# [13] = molecular target: Fuc(a1-2)[GalNAc(a1-3)]Gal(b1-3)GlcNAc(b1-2)Man(a1-3)[Fuc(a1-2)[GalNAc(a1-3)]Gal(b1-3)GlcNAc(b1-2)Man(a1-6)]Man(b1-4)GlcNAc(b1-4)GlcNAc
# Summary of the method: as §1
# [14] = molecular target: Fuc(a1-2)[GalNAc(a1-3)]Gal(b1-3)GlcNAc(b1-2)Man(a1-3)[Fuc(a1-2)[GalNAc(a1-3)]Gal(b1-3)GlcNAc(b1-2)Man(a1-6)]Man(b1-4)GlcNAc(b1-4)[Fuc(a1-6)]GlcNAc
# Summary of the method: as §1
# [15] = molecular target: Fuc(a1-2)[GalNAc(a1-3)]Gal(b1-3)GlcNAc(b1-3)GalNAc
# Summary of the method: as §1
# [16] = molecular target: Fuc(a1-2)[GalNAc(a1-3)]Gal(b1-3)GlcNAc(b1-6)GalNAc
# Summary of the method: as §1
# [17] = molecular target: Fuc(a1-2)[GalNAc(a1-3)]Gal(b1-4)Glc
# Summary of the method: as §1
# [18] = molecular target: Fuc(a1-2)[GalNAc(a1-3)]Gal(b1-4)GlcNAc
# Summary of the method: as §1
# [19] = molecular target: Fuc(a1-2)[GalNAc(a1-3)]Gal(b1-4)GlcNAc(b1-2)Man
# Summary of the method: as §1
# [20] = molecular target: Fuc(a1-2)[GalNAc(a1-3)]Gal(b1-4)GlcNAc(b1-2)Man(a1-3)[Fuc(a1-2)[GalNAc(a1-3)]Gal(b1-4)GlcNAc(b1-2)Man(a1-6)]Man(b1-4)GlcNAc(b1-4)GlcNAc
# Summary of the method: as §1
# [21] = molecular target: Fuc(a1-2)[GalNAc(a1-3)]Gal(b1-4)GlcNAc(b1-2)Man(a1-3)[Fuc(a1-2)[GalNAc(a1-3)]Gal(b1-4)GlcNAc(b1-2)Man(a1-6)]Man(b1-4)GlcNAc(b1-4)[Fuc(a1-6)]GlcNAc
# Summary of the method: as §1
# [22] = molecular target: Fuc(a1-2)[GalNAc(a1-3)]Gal(b1-4)GlcNAc(b1-3)Gal(b1-4)GlcNAc
# Summary of the method: as §1
# [23] = molecular target: Fuc(a1-2)[GalNAc(a1-3)]Gal(b1-4)GlcNAc(b1-3)Gal(b1-4)GlcNAc(b1-3)Gal(b1-4)GlcNAc
# Summary of the method: as §1
# [24] = molecular target: Fuc(a1-2)[GalNAc(a1-3)]Gal(b1-4)GlcNAc(b1-3)GalNAc
# Summary of the method: as §1
# [25] = molecular target: Fuc(a1-2)[GalNAc(a1-3)]Gal(b1-4)GlcNAc(b1-3)[Fuc(a1-2)[GalNAc(a1-3)]Gal(b1-4)GlcNAc(b1-6)]GalNAc
# Summary of the method: as §1
# [26] = molecular target: Fuc(a1-2)[GalNAc(a1-3)]Gal(b1-4)GlcNAc(b1-6)GalNAc
# Summary of the method: as §1
# [27] = molecular target: Fuc(a1-2)[GalNAc(a1-3)]Gal(b1-4)[Fuc(a1-3)]GlcNAc
# Summary of the method: as §1
# [28] = molecular target: Fuc(a1-2)[GalNAc(a1-3)]Gal(b1-4)[Fuc(a1-3)]GlcNAc(b1-3)GalNAc
# Summary of the method: as §1
# [29] = molecular target: Fuc(a1-2)[GalNAc(a1-4)]Gal(b1-4)GlcNAc
# Summary of the method: as §1
# [30] = molecular target: Fuc(a1-2)[GalNAc(b1-3)]Gal
# Summary of the method: as §1
binder,measurement,setting,value
B1,glycan array binding signal (z-score),[1],-0.298
same,glycan array binding signal (z-score),[2],0.162
same,glycan array binding signal (z-score),[3],0.021
same,glycan array binding signal (z-score),[4],-0.145
same,glycan array binding signal (z-score),[5],0.301
same,glycan array binding signal (z-score),[6],-0.096
same,glycan array binding signal (z-score),[7],0.028
same,glycan array binding signal (z-score),[8],0.449
same,glycan array binding signal (z-score),[9],-0.499
same,glycan array binding signal (z-score),[10],-0.504
same,glycan array binding signal (z-score),[11],-0.48
same,glycan array binding signal (z-score),[12],-0.241
same,glycan array binding signal (z-score),[13],0.456
same,glycan array binding signal (z-score),[14],-0.045
same,glycan array binding signal (z-score),[15],-0.145
same,glycan array binding signal (z-score),[16],-0.017
same,glycan array binding signal (z-score),[17],-0.222
same,glycan array binding signal (z-score),[18],-0.267
same,glycan array binding signal (z-score),[19],-0.338
same,glycan array binding signal (z-score),[20],1.86
same,glycan array binding signal (z-score),[21],-0.649
same,glycan array binding signal (z-score),[22],-0.254
same,glycan array binding signal (z-score),[23],2.27
same,glycan array binding signal (z-score),[24],-0.409
same,glycan array binding signal (z-score),[25],-0.338
same,glycan array binding signal (z-score),[26],-0.257
same,glycan array binding signal (z-score),[27],-0.106
same,glycan array binding signal (z-score),[28],-0.371
same,glycan array binding signal (z-score),[29],1.69
same,glycan array binding signal (z-score),[30],-0.447
